Data from publication PMC4336329 (PLoS ONE, 2015).
The campaign covered roughly 310,000 compounds. About 14,000 (4.5%) showed an effect of 50% or more. The effect is printed as a negative number. The list shows a part of the results.

biological target: human ether-à-go-go-related gene (hERG) potassium channel (human, UniProt Q12809); assay: primary screen, population patch clamp on CHO cells stably expressing hERG
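Note: peak tail current of the secondary pulse compared with the same well before compound.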

Chain of human ether-à-go-go-related gene (hERG) potassium channel (Q12809 whole entry, looked up): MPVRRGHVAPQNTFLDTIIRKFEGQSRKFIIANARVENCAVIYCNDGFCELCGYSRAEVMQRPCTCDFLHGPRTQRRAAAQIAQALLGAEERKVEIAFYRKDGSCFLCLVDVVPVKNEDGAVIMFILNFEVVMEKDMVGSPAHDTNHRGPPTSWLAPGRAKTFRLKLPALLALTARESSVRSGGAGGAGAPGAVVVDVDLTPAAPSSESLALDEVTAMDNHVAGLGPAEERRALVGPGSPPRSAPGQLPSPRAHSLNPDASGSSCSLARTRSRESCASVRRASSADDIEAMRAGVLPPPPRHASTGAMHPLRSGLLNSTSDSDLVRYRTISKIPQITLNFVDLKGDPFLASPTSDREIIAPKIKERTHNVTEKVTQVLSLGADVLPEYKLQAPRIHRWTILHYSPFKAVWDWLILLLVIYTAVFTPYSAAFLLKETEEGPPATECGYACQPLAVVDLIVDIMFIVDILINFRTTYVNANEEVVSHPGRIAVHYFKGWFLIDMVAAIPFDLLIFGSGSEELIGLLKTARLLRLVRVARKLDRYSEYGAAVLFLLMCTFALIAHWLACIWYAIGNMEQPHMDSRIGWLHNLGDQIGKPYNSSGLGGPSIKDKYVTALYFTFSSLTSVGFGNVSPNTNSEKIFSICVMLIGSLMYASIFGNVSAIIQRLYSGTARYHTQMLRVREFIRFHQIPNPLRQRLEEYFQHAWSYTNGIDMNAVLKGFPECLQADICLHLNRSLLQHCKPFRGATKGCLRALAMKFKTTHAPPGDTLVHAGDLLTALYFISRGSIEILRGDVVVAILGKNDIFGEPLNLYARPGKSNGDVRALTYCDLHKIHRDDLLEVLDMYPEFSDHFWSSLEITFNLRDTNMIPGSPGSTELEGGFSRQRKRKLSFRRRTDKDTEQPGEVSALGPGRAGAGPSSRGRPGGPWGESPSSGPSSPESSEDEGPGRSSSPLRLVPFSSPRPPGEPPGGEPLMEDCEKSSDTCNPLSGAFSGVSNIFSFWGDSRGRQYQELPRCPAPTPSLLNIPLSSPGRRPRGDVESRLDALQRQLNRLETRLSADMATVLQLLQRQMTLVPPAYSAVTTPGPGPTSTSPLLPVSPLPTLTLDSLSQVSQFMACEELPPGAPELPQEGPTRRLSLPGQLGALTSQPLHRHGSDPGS

Compound | hERG current change (%, negative = inhibition) at 10uM [%]
COc1ccc(CNC(=O)Cn2nc(C(F)(F)F)cc2C)cc1 | 6.77
CSCCC(NC(=O)c1ccco1)C(=O)OCC(=O)N(Cc1ccccc1)C(C)(C)C (stereo not shown) | -31.1
Cc1ccccc1CSCCNC(=S)Nc1ccccc1 | 11.2
CCc1nc(N2CCN(C(=O)c3ccco3)CC2)c2c3c(sc2n1)CCCC3 | -65.3
COCCN(Cc1ccccc1)C(=O)c1ccc(C(=O)c2ccccc2)cc1 | -21.8
COc1ccccc1N1CCN(C(=O)C(Sc2ccccc2)c2ccccc2)CC1 (stereo not shown) | -6.52
O=C(Nc1ccc2c(c1)OCO2)N1CCOCC1 | -3.44
O=C(c1cccc(C(F)(F)F)c1)N1CCOC12CCN(c1ncc(C(F)(F)F)cc1Cl)CC2 | 18.9
O=C(COC(=O)C1CCN(S(=O)(=O)c2ccc3c(c2)OCCO3)CC1)Nc1cc(C(F)(F)F)ccc1Cl | -11.7
Cc1ccccc1OCc1nnc2n1CC(C)S2 (stereo not shown) | 7.43
CC1(C)NC(=O)N(CCOCCOc2ccccc2-c2ccccc2)C1=O | -14.7
CC1=N/C(=C\c2ccc(OC(C)C)cc2)C(=O)N1c1ccc(C(=O)O)cc1 | 12.4
CCC(=O)C1CCCN(C(=O)CCc2nnc(C3(c4ccc(Cl)cc4)CCC3)o2)C1 (stereo not shown) | -38.5
COc1ccc2c(c1)[C@H]1[C@H](CO2)[C@H](c2ccccc2)[C@]2(C)C(=O)Nc3cc(OC)c(OC)cc3C(=O)N12 | 8.37
CC1(CCC(=O)N2CCCC(N3CCN(c4ccc(F)cc4)CC3)C2)CC1 (stereo not shown) | -64.7
CC(=O)c1cc(CN2CCN(CCC(C)C)C(CCO)C2)cs1 (stereo not shown) | -5.53
COC(=O)c1c(C)[nH]c(C)c1-c1ccccc1 | -5.37
CCOC(=O)c1ccc(CC2SC(N)=NC2=O)cc1 (stereo not shown) | 2.63
CSc1ccc(Cl)c(C(=O)Nc2ccc(Cl)cn2)c1 | 1.42
COC(=O)c1cc(Cl)cc(Cl)c1OS(=O)(=O)N(C)C | -21.3
CCOC(=O)C1(Cc2ccccc2Cl)CCN(C(=O)CN2CCOC2=O)CC1 | 8.88
CCCNS(=O)(=O)c1cc2c3c(c1)C(C)C(=O)N3CCC2 (stereo not shown) | 5.95

Compound | hERG current change (%, negative = inhibition) at 10uM [%]
O=C(CNC(=O)C(c1ccccc1)c1ccccc1)N/N=C/c1ccc(O)c([N+](=O)[O-])c1 | -4.11
O=c1sc2ccccc2c(N2CCOCC2)c1[N+](=O)[O-] | 20.9
O=C(O)c1ccccc1C(=O)OCc1ccccc1 | 10.7
COc1ccccc1CCC(=O)OCC(=O)Nc1ccc(C(N)=O)cc1 | 12.3
O=C(COC(=O)CC1CCCC1)Nc1cc2c(cc1Cl)C(=O)c1ccccc1C2=O | -6.56
Cc1cc(C)c(-c2cc(C)nc3ncnn23)c(C)c1 | 7.75
O=C(O)c1cccc2c1C(=O)c1ccccc1C2=O | 19.7
Cc1ccc(C2=NN(CC(=O)NCCN(CC(C)C)CC(C)C)C(=O)CC2)cc1 | -50.2
Cc1ccc(S(=O)(=O)n2ccc(-c3ccc(OCc4c(F)cccc4Cl)cc3)n2)cc1 | 14.9
O=C(CC1C(=O)NCCN1C1CCCC1)NCc1cccc(OC(F)(F)F)c1 (stereo not shown) | -21.1
O=S(=O)(c1ccc2oc3ccccc3c2c1)N1CCCC1 | 5.64
Cc1ccc(S(=O)(=O)NCCNC(C)c2ccc(Br)cc2)cc1 (stereo not shown) | -42.5
COc1ccc(NC(=O)CN(C)C(=O)c2oc3ccccc3c2C)cc1 | -14.3
N#CCc1cc2ccc3cccc4ccc(c1)c2c34 | 16.2
CCc1ccc(NC(=O)CSc2nc(=O)n(CCCN3CCOCC3)c3c2CCC3)cc1 | -40
Cc1ccccc1NS(=O)(=O)c1ccc(C(=O)NCC(c2ccco2)N2CCCCC2)cc1 (stereo not shown) | 5.89
CCCc1cc(=O)oc2cc(C)cc(OCC(=O)N[C@@H](CSCc3ccccc3)C(=O)O)c12 | -6.2
O=C(Cn1cnc2nc3n(c2c1=O)CCC3)NCc1ccccc1 | -3.68
COc1ccc(NC(=O)c2cnc3n(c2=O)CCS3)cc1OC | 13.4
N#Cc1sc2nc3c(cc2c1N)CCCC3 | -6.61
COc1ccc(CN2CCOCC2)c(C)c1C | -9.9
COCCNc1nnc(SCC(=O)NNC(=O)c2ccco2)s1 | -0.674

Compound | hERG current change (%, negative = inhibition) at 10uM [%]
COc1ccc(-n2c(=S)[nH]c3cc(C(=O)N(C)Cc4ccccc4)ccc3c2=O)cc1 | 8.39
O=C1N/C(=C\c2ccccc2)c2ccccc21 | 4
C=CC[C@]12CC=CC(=O)[C@@]1(O)O[C@H](c1ccc(OC)c(OC)c1)[C@H]2C | 11.9
CC(C)(C)N(NC(=O)Nc1ccccc1)C(=O)c1ccccc1Cl | 17
Cc1ccc(C)c(S(=O)(=O)N2CCN(C(=O)c3cncc(Br)c3)CC2)c1 | -20.3
COc1ccc(C2C(Oc3ccccc3)C(=O)N2c2ccc(C)c(C)c2)cc1OC (stereo not shown) | 0.00408
CC(=O)c1ccc(NS(=O)(=O)c2ccc(N/C=C/C(=O)c3ccc(F)cc3)cc2)cc1 | 15.1
CC(=O)Oc1ccc(C(=O)Nc2cccc(C(=O)c3cccc(NC(=O)c4ccc(OC(C)=O)cc4)c3)c2)cc1 | 3.32
CCC(CO)NC(=O)C1C=C2c3cccc4[nH]cc(c34)CC2N(C)C1 (stereo not shown) | 23.7
COCCN(C(C)=O)c1nnc(-c2ccccn2)s1 | 13.2
Cc1nc(SCC(=O)NCC2CCCO2)c2oc3ccccc3c2n1 (stereo not shown) | -3.09
Cc1sc2c(c1C)CN(C1CC(C)(C)NC(C)(C)C1)CN2C(=O)c1ccco1 | -32.8
Cc1ccc(C(=O)Nc2nnc(Cc3ccccc3)s2)cc1 | 9.35
C=C(C)C(=O)OCC(=O)NCc1ccccc1 | 24.6
COc1ccc(NC(=O)CCn2cccc2)c(OC)c1 | 11.8
CNC(=S)NNC(=O)c1ccc(=O)n(Cc2ccc(Cl)cc2Cl)c1 | 47.8
O=C(O)c1cccc(COc2ccc3c(c2)CCC3)c1 | 18.3
Cc1ccc(F)c([C@H]2[C@@H]3C=CCC[C@@]3(C)C(=O)N2Cc2ccccc2)c1 | 8.02
COc1ccccc1CC(=O)Nc1cc(OC)c(NC(=O)c2ccccc2)cc1OC | 7.91
CCCn1c(N)cc(=O)n(CCC)c1=O | 24
CCOc1cccc2sc(Nc3nc4ccc(NC(C)=O)cc4s3)nc12 | 5.63
O=C(c1ccc(N2C(=O)C3CC=C(Cl)CC3C2=O)cc1)N1CCCCC1 (stereo not shown) | 11.9

Compound | hERG current change (%, negative = inhibition) at 10uM [%]
O=S(=O)(c1ccc(Cl)cc1)c1snnc1-c1ccccc1 | -3.38
COC(=O)CSc1nc(Cc2ccccc2)nc2ccccc12 | -26
CSc1n[nH]c(NCc2cccs2)n1 | 8.8
Cc1ccc(S(=O)(=O)NCCOC(=O)Nc2sc(=S)n(C)c2C)cc1 | 0.465
CN(/N=C/c1ccccc1Cl)c1ncc(Cl)cc1C(F)(F)F | 7.79
CCC(=O)NC(NC(=S)Nc1ccc(S(N)(=O)=O)cc1)C(Cl)(Cl)Cl (stereo not shown) | -1.3
C=CCOC(=O)C1=C[C@H](c2ccc(Br)cc2)C[C@H](OCc2ccc(CO)cc2)O1 | -15.6
CN(C)CCN(Cc1ccccc1)S(=O)(=O)c1ccc(-c2ccc(=O)[nH]n2)s1 | -67.4
Nc1nnc(SCc2ccccc2Cl)s1 | 2.17
CC(=O)Nc1ccc(/C=C(\C#N)C(N)=O)cc1 | 12.5
COc1cccc(N(C(=O)Cn2nnc(-c3ccc(C)cc3)n2)C(C(=O)NC(C)(C)C)c2c[nH]c3ccccc23)c1 (stereo not shown) | 11.4
O=C(c1ccc(NS(=O)(=O)c2ccccc2)cc1)N1CCOCC1 | 21
CC(=O)NS(=O)(=O)c1ccc(NC(=O)c2cccc3ccccc23)cc1 | 20.1
S=C(Nc1ccc(N2CCOCC2)cc1)Nc1ccc2snnc2c1 | -5.04
O=C(COc1ccc(Br)cc1)Nc1ccc(C(=O)Nc2ccccc2C(=O)O)cc1 | -4.9
CCC(=O)NCCc1nc2cc(NC(=O)c3ccc(F)cc3)ccc2n1C | 1.29
CCN(CC)CCN(C(=O)c1ccc2c(c1)CCCC2)c1nc2c(C)cccc2s1.Cl | -30.2
O=C(Nc1ccc(Cl)cc1)N[C@@H]1c2c(ccc3ccccc23)OC[C@@H]1CO | 9.18
CC(=O)Nc1ccc(-n2nnnc2SCC(=O)N2CCN(C(=O)c3ccco3)CC2)cc1 | 1.63
O=C(NCCc1ccccc1)c1ccc(-c2ccccc2Cl)o1 | 2.29
CCN(CC)S(=O)(=O)c1ccc(/C=C/C(=O)O)cc1 | 6.39
Cc1cccc(Cc2nnc(CCC(=O)N(C)CCc3ccccc3)o2)c1 | 2.18
